Results from PubChem BioAssay AID463173 (ICCB-Longwood Screening Facility, Harvard Medical School, 2010).
Among all 52,000 compounds or so, about 1,700 (3.3%) were called active. No stated cut-off is given here; in the data, active means survival mostly below about 52% (no sharp cut-off); inactive means mostly above about 56%. This is one part of the list.

system: Wild type; assay: growth inhibition of S. aureus wild type versus tarO mutant, primary screen, teichoic acid synthesis inhibitors, RN4220, OD600 (AID 463173); details: S. aureus RN4220 wild type/DeltatarO growth, OD600, 18 h, stronger effect = lower value, screened at 18.75 µg/mL (by protocol)

SMILES	survival
CC(Oc1ccc(Br)cc1)C(=O)Nc1ncn[nH]1 (centres undefined)	inactive: 91%
Cc1ccc(C)c(NC(=O)C2CCCN(S(=O)(=O)c3cn(C)cn3)C2)c1 (centres undefined)	inactive: 101%
CC1(C)CC(=O)C(Sc2nnc(-c3ccc(O)cc3)n2CC2CCCO2)C(=O)C1 (centres undefined)	inactive: 103%
COc1ccc(NC(=O)CCc2nnc3n(Cc4ccccc4Cl)c(=O)c4ccccc4n23)cc1	inactive: 86%
CC1CCCCN1C(=O)C1CCN(S(=O)(=O)c2ccc(-n3cnnn3)cc2)CC1 (centres undefined)	inactive: 100%
Cc1ccc2nc(-c3ccc(Cl)c(NC(=O)COc4ccc(C(C)C)cc4)c3)oc2c1	inactive: 59%
Cc1ccc(S(=O)(=O)CCSC(=N)N)cc1	inactive: 92%
Cc1ccc(N2C(=O)N(Cc3cc(=O)n4ccccc4n3)c3ccccc3S2(=O)=O)cc1Cl	inactive: 72%
CCOc1ccccc1CNC(=O)Cn1cc2c(n1)-c1c(oc(C(=O)N3CCCC3)c1C)CC2	inactive: 91%
CCNc1cc(N2CCN(C3CCCCC3)CC2)c2noc3c2c1C(=O)c1ccccc1-3	inactive: 84%
CCCCNc1c2c(nc3ccccc13)CC(C)(C)CC2O (centres undefined)	inactive: 105%
COc1ccc(Br)cc1CNC(=O)CCSCc1ccc(C)cc1	inactive: 72%
Cc1ccc(S(=O)(=O)N2CCN(Cc3nc4ccc(C)cc4o3)CC2)cc1	inactive: 80%
O=C(Cn1cc(S(=O)(=O)c2ccccc2)c(=O)c2cc3c(cc21)OCO3)Nc1ccc(Cl)cc1	inactive: 65%
O=C(CS(=O)(=O)c1cccc2nsnc12)N1CCN(c2cccc(C(F)(F)F)c2)CC1	inactive: 80%
CSc1ccc(CCNC(=O)c2ccc(-c3nc(COc4ccc(C)cc4)c(C)o3)cc2)cc1	inactive: 99%
CCOC(=O)CSc1nc2ccccc2c(=O)n1-c1cccc(C)c1	inactive: 59%
COC(=O)c1ccccc1NC(=O)C1=C(C)C(=O)OC12CCCCCC2	inactive: 91%
COc1ccc(C(=O)Nc2ccccc2SCc2cc(=O)c3cccc(C)c3[nH]2)cc1	inactive: 71%
O=C(O)Cc1ccc(NC2(c3ccccc3)C(=O)c3ccccc3C2=O)cc1	inactive: 45%
COc1ccc(S(=O)(=O)NCCS(=O)(=O)N2CCN(c3ccccc3)CC2)cc1C	inactive: 135%
O=C(O)Cc1sc(Nc2ccccc2)nc1-c1ccccc1	inactive: 59%
CCCn1c(SCC(=O)N2CCCc3ccccc32)nnc1C(C)C	inactive: 104%

SMILES	survival
c1ccc(CN2CCC(N3CCN(C4CCCCC4)CC3)CC2)cc1	inactive: 105%
COc1ccccc1CCNC(=O)C1CCN(c2nnc(-n3cccc3CNc3ccc(C)cc3)s2)CC1	inactive: 86%
COc1ccc(Cl)cc1NC(=O)c1cn(C2CCCCC2)c(=O)c2c1c1ccccc1n2C	inactive: 84%
N/C(=N\c1nc2ccccc2o1)NC(=O)/C=C/c1ccco1	inactive: 122%
CCOc1ccc(Nc2nc3cc(Cl)c(Cl)cc3nc2-n2nc(C)cc2C)cc1	inactive: 88%
Cc1c(C(=O)N(Cc2ccc(N(C)C)cc2)CC2CCCO2)oc2ccc(Cl)cc12 (centres undefined)	inactive: 86%
COc1ccc(N2CCN(c3csc4ccc(Cl)cc4c3=O)CC2)cc1	inactive: 73%
O=C(O)c1ccc2nc(-c3cc4cccc(O)c4oc3=O)[nH]c2c1	inactive: 59%
Cc1ccc(C)c(S(=O)(=O)c2nnn3c2nc(NC(C)C)c2sccc23)c1	inactive: 69%
NS(=O)(=O)c1ccc(NC(=O)CN2C(=O)COc3ccc(Cl)cc32)cc1	inactive: 84%
COc1ccc(CNC(=O)c2cc(-c3ccc(C)cc3)nc3n[nH]c(-c4ccc(Br)cc4)c23)cc1	inactive: 64%
COc1ccccc1Cn1cc(C(=O)c2ccc(C)cc2)c(=O)c2cc(C)ccc21	inactive: 121%
CCN(c1ccccc1)c1ccc2cc(S(=O)(=O)N3CCCC3)ccc2n1	inactive: 78%
Cc1ccc(-n2nc(CO)c(C(=O)NCCCc3ccccc3)n2)cc1C	inactive: 112%
CCc1ccccc1Nc1nn2c(=O)c3ccc(C(=O)NCc4ccccc4OC)cc3nc2s1	inactive: 72%
CCOC(=O)c1c(C)[nH]c(C)c1S(=O)(=O)N1CCCC(C(=O)Nc2ccc(C)cn2)C1 (centres undefined)	inactive: 76%
CCOc1ccc(Nc2ncnc3c2nc2n3CCCC2)cc1	inactive: 51%
CCOc1ccc(NC(=O)CSc2ccc(-c3sc(-c4ccccc4)nc3C)nn2)cc1	inactive: 42%
CCOc1ccccc1CNC(=O)c1c(C)oc2ncnc(N3CCOCC3)c12	inactive: 78%
NC(=O)CN(c1ccccc1)C1SC(=O)NC1=O (centres undefined)	inactive: 92%
Cc1ccccc1C(=O)NC1(C(F)(F)F)N=C(c2ccccc2)N(C2CCCCC2)C1=O (centres undefined)	inactive: 75%
CCOC(=O)c1oc2ccc(S(=O)(=O)n3nc(-c4cc(OC)c(OC)c(OC)c4)cc3N)cc2c1C	inactive: 98%
CCOc1ccc2nc(Cl)c(C3CC(c4ccc(OC)cc4)=NN3S(C)(=O)=O)cc2c1 (centres undefined)	inactive: 132%

SMILES	survival
CCOC(=O)CNC(=O)Nc1cc(C(=O)NCc2ccccc2OC)ccc1N1CCCC1	inactive: 77%
CC(C)C(=O)Nc1ccccc1OCc1cc(=O)n2ccccc2n1	inactive: 111%
COc1ccc(Cl)cc1NC(=O)C1CCCN(c2ncnc3onc(C)c23)C1 (centres undefined)	inactive: 128%
N#CCCn1c(=O)[nH]c(=O)n(CCC#N)c1=O	inactive: 101%
CCC(Oc1ccccc1F)C(=O)N1CCC(c2nc3ccccc3s2)CC1 (centres undefined)	active: -3%
CCOc1ccc(NC(=O)C2CCCN(c3ccc(Sc4ccc(C)cc4)nn3)C2)cc1 (centres undefined)	active: 16%
COC(=O)C(CCSC)NC(=O)c1cc2c(n(-c3ccc(Cl)cc3)c1=O)CCCC2=O (centres undefined)	inactive: 72%
O=C(NC(=O)c1ccccc1)Nc1ccc(-c2cc(C(F)(F)F)nn2-c2ccccc2)cc1	inactive: 101%
CCCn1c(CNC(=O)c2ccc(F)cc2)nc2ccccc21	inactive: 69%
O=C(CCCN1C(=O)C(c2ccccc2)Oc2cccnc21)Nc1ccccc1C(F)(F)F (centres undefined)	inactive: 113%
Cc1ccc2oc(-c3ccc(C)c(NC(=O)c4ccc(N5CCC(C)CC5)c([N+](=O)[O-])c4)c3)nc2c1	inactive: 141%
Cc1cccc(NC(=O)c2cc3c(=O)n4cccc(C)c4nc3s2)c1C	inactive: 86%
O=c1c2cc3c(cc2n(Cc2ccc(F)cc2)c(=O)n1Cc1nc(-c2ccccc2)no1)OCO3	inactive: 70%
Cc1cccc(NC(=O)c2ccc3snnc3c2)c1C	inactive: 101%
CC(C)CN(CCCNC(=O)CN1N=C(c2ccc(Cl)cc2)CCC1=O)CC(C)C	inactive: 75%
COc1ccc2c(c1)CCc1c(C(=O)Nc3c(C)nn(Cc4ccccc4C)c3C)noc1-2	inactive: 26%
Clc1ccc2c(c1)NC(c1ccncc1)=NC(c1cccs1)=N2	inactive: 79%
COC(=O)c1c(SC)nc2ccccc2c1OCc1ccc(Cl)cc1	inactive: 79%
COc1cc(CNC(=O)c2ccc3nc(CCc4ccccc4)oc3c2)cc(OC)c1OC	inactive: 66%
CCOc1ccccc1NC(=O)C(CC(C)C)NS(=O)(=O)c1ccc2c(c1)oc(=O)n2C (centres undefined)	inactive: 141%
CCN1CCN(C(=O)c2cnn(-c3cccc(Cl)c3)c2C2CCN(C(=O)OC(C)(C)C)CC2)CC1	inactive: 83%
O=C(COCc1cc(-c2ccc3c(c2)OCO3)on1)N1CCN(c2cccc(Cl)c2)CC1	inactive: 45%
CNS(=O)(=O)c1cn(CC(=O)N2CCN(c3cccc(C)c3C)CC2)cc1S(=O)(=O)NC	inactive: 88%

SMILES	survival
Cc1ccc(S(=O)(=O)N(Cc2nc(-c3cccc(C)c3)no2)C2CCCCC2)cc1	inactive: 83%
O=c1cc(-c2ccccc2)nc(SCc2nc(-c3ccc(Cl)cc3)no2)[nH]1	inactive: 88%
O=C1CC2CCC(CN1)N2CC(=O)Nc1ccc(F)cc1 (centres undefined)	inactive: 105%
COc1ccc2nc(NS(=O)(=O)Cc3ccccc3)sc2c1	inactive: 107%
COc1ccc(N2Cc3cccc(C(=O)Nc4cc(C)cc(C)c4)c3C2=O)cc1	inactive: 86%
CSC1=NC2(CCN(C(=O)NC3CCCCC3)CC2)N=C1c1ccc(C)cc1	inactive: 74%
Cc1cc(F)ccc1NC(=O)CCS(=O)(=O)c1ccc2c(c1)CC(C)N2C(=O)C1CC1 (centres undefined)	inactive: 71%
O=C(C1COc2ccccc2O1)N1CCN(c2nc3ccc(F)cc3s2)CC1 (centres undefined)	inactive: 75%
Cc1noc(-c2ccc(-c3noc(-c4cccc(F)c4)n3)cc2)n1	inactive: 67%
NC(=O)C1CCN(C(=O)c2cccc(NC(=O)c3nsc4ccccc34)c2)CC1	inactive: 79%
CCN(CC)S(=O)(=O)c1nnc(NC(=O)COc2ccccc2F)s1	inactive: 101%
COCCN(C(=O)c1ccccc1)c1nnc(-c2ccncc2)s1	inactive: 105%
Nc1c(C(=O)Nc2ccc(OC(F)(F)F)cc2)nnn1Cc1ccccc1	inactive: 73%
CCOc1ccc(CNC(=O)CSc2cc(=O)n(CC)c3ccccc23)cc1	inactive: 71%
Cn1c(=O)c2c(nc(SCC(=O)Nc3ccccc3)n2Cc2ccccc2F)n(C)c1=O	inactive: 74%
O=C(C1COc2ccccc2O1)N(Cc1cccnc1)c1nc2ccc(Cl)cc2s1 (centres undefined)	inactive: 71%
Cc1ccc(C#N)c(=O)n1CC(=O)Nc1ccccc1C(F)(F)F	inactive: 140%
Fc1ccc(CNc2ncnc3onc(-c4ccc(F)cc4)c23)cc1	inactive: 77%
CCc1c(CN2CCN(c3cccc(C)c3C)CC2)csc1C	inactive: 86%
CCc1cccc(C)c1Nc1c(-c2ccccc2)nc2sccn12	inactive: 35%
